{"source": "paper PMC4336329", "about": "(PLoS ONE, 2015)", "note": "Screen size: about 310,000 compounds; about 14,000 (4.5%) showed an effect of 50% or more. The effect is printed as a negative number. Some of the results follow.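 Further: peak tail current of the secondary pulse compared with the same well before compound.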", "data": [{"target": "human ether-à-go-go-related gene (hERG) potassium channel (human, UniProt Q12809)", "sequence (Q12809 whole entry, looked up)": "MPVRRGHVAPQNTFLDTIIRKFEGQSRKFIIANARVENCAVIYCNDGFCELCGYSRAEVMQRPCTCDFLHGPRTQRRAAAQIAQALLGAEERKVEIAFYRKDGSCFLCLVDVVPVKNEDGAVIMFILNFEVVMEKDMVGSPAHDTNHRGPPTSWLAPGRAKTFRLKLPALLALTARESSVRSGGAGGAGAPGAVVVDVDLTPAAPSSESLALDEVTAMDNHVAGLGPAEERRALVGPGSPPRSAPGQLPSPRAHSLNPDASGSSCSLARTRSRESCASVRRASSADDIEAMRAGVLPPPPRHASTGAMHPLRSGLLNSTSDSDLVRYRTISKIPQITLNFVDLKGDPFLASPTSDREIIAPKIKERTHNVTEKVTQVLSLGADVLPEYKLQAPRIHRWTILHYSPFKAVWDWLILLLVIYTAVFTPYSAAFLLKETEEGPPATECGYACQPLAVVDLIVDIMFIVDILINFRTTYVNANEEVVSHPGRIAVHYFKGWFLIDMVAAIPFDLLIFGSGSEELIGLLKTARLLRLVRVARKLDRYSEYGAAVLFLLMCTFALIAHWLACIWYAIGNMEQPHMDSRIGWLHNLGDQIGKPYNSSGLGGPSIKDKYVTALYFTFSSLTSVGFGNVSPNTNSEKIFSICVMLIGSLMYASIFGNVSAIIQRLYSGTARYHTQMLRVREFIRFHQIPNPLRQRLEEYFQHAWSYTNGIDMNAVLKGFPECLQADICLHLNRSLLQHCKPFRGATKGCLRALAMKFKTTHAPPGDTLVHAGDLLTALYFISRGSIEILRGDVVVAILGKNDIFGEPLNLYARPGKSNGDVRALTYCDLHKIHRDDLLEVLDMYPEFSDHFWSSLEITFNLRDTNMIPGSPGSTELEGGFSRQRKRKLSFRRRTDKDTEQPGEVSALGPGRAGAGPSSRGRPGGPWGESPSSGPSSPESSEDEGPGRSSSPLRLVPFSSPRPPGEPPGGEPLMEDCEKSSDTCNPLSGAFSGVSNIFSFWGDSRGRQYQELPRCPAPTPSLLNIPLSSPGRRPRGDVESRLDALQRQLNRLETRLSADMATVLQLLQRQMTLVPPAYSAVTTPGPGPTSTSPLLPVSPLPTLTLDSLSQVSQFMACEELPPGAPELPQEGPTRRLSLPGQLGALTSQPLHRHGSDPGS", "assay": "primary screen, population patch clamp on CHO cells stably expressing hERG", "units": {"hERG current change (%, negative = inhibition) at 10uM": "%"}, "values": [{"smiles": "O=C1CNC(c2ccccc2Cl)c2cc(Br)ccc2N1", "note": "(centres unmarked)", "hERG current change (%, negative = inhibition) at 10uM": 11.5}, {"smiles": "COc1cc(Cl)c(C)cc1NC(=O)COc1cc(C)nc(C(C)C)n1", "hERG current change (%, negative = inhibition) at 10uM": 4.03}, {"smiles": "CCCCOCCCNC(=O)N[C@@H](CC(C)C)C(=O)O", "hERG current change (%, negative = inhibition) at 10uM": 8.87}, {"smiles": "CC1Cc2ccccc2N1S(=O)(=O)c1cccc(C(=O)Nc2cccnc2)c1", "note": "(centres unmarked)", "hERG current change (%, negative = inhibition) at 10uM": -60.2}, {"smiles": "O=C(CSc1nccn1-c1ccc(F)cc1)NCc1ccc2c(c1)OCO2", "hERG current change (%, negative = inhibition) at 10uM": -13.1}, {"smiles": "O=C(CSc1n[nH]c(-c2ccncc2)n1)Nc1ccccc1Cl", "hERG current change (%, negative = inhibition) at 10uM": 9.56}, {"smiles": "CCN(CC)CCOC(=O)C(Cc1ccco1)Cc1cccc2ccccc12.O=C(O)C(=O)O", "note": "(centres unmarked)", "hERG current change (%, negative = inhibition) at 10uM": -76.8}, {"smiles": "Cc1cc(C)nc(SCc2cn3c(C)cccc3n2)n1", "hERG current change (%, negative = inhibition) at 10uM": 6.36}, {"smiles": "CC(C(=O)Nc1ccc(Br)cc1C(=O)c1ccccc1)N1CCCCC1", "note": "(centres unmarked)", "hERG current change (%, negative = inhibition) at 10uM": -24.8}, {"smiles": "COc1ccc2nc(Nc3nc(CSc4nnc(C)s4)cc(=O)[nH]3)nc(C)c2c1", "hERG current change (%, negative = inhibition) at 10uM": -1.31}, {"smiles": "Cc1ccccc1N1C(=O)C(Cl)=C(N2CCN(c3ccccc3)CC2)C1=O", "hERG current change (%, negative = inhibition) at 10uM": 3.27}, {"smiles": "BrCC(Br)(Br)Br", "hERG current change (%, negative = inhibition) at 10uM": 11}, {"smiles": "COc1ccc(NC2CCCN(C(=O)CCn3cccn3)C2)cc1", "note": "(centres unmarked)", "hERG current change (%, negative = inhibition) at 10uM": 8.98}, {"smiles": "COC(=O)c1ccc(C(=O)Nc2ccc(C(C)C)cc2N)cc1", "hERG current change (%, negative = inhibition) at 10uM": 22.2}, {"smiles": "COc1cccc2c(SCC(=O)N/N=C/c3ccccc3)cc(C)nc12", "hERG current change (%, negative = inhibition) at 10uM": 0.116}, {"smiles": "COc1cc(C(=O)NCCC(=O)N2CCCCC2)cc(OC)c1OC", "hERG current change (%, negative = inhibition) at 10uM": 22.3}, {"smiles": "Cc1ccc(CCNC(=O)CCS(=O)(=O)c2ccc3nc(C)sc3c2)cc1", "hERG current change (%, negative = inhibition) at 10uM": 1.44}, {"smiles": "Cc1ccc(-n2ncc3c2CC(C)(C)CC3NC(=O)c2c(C)noc2C)cc1", "note": "(centres unmarked)", "hERG current change (%, negative = inhibition) at 10uM": -14.7}, {"smiles": "COc1ccc(/C=N/Nc2nc(Nc3ccccc3)nc(N3CCCCC3)n2)c(OC)c1", "hERG current change (%, negative = inhibition) at 10uM": 7.24}, {"smiles": "Cc1cc(NC(=O)Nc2ccccc2F)ccc1Br", "hERG current change (%, negative = inhibition) at 10uM": 15.7}, {"smiles": "CN(C1CCCCC1)S(=O)(=O)c1ccc(C(=O)N2CCN(c3nc4ccccc4s3)CC2)cc1", "hERG current change (%, negative = inhibition) at 10uM": 17.6}, {"smiles": "O=C(CSc1ccc(-c2ccccn2)nn1)NC1CCCCC1", "hERG current change (%, negative = inhibition) at 10uM": -14}, {"smiles": "CCc1ccc(OCC(=O)Nc2ccc(S(=O)(=O)N3CCOCC3)cc2)cc1", "hERG current change (%, negative = inhibition) at 10uM": -6.92}, {"smiles": "O=C(O)c1ccc2c(c1)N(Cc1ccccc1)C(=O)c1ccccc1S2=O", "note": "(centres unmarked)", "hERG current change (%, negative = inhibition) at 10uM": 21.1}, {"smiles": "Cc1[nH]c2ccccc2c1C(=O)C(=O)N1CC(C)OC(C)C1", "note": "(centres unmarked)", "hERG current change (%, negative = inhibition) at 10uM": 15.8}, {"smiles": "Cc1cccc(OC(=O)CCN2C(=O)C3C4C=CC(C5CC45)C3C2=O)c1C", "note": "(centres unmarked)", "hERG current change (%, negative = inhibition) at 10uM": -0.833}, {"smiles": "O=C(CN1CCCCCCC1)NC(=O)NC1CCCCC1", "hERG current change (%, negative = inhibition) at 10uM": 6.71}, {"smiles": "CN1CCc2nc3ccccc3c(C(=O)OCC(=O)N(CCC#N)c3ccccc3)c2C1", "hERG current change (%, negative = inhibition) at 10uM": -9.44}, {"smiles": "O=C(N/N=C/c1sc2ccccc2c1O)c1cccc2ccccc12", "hERG current change (%, negative = inhibition) at 10uM": -5.97}, {"smiles": "Cc1ccc(S(=O)(=O)/N=C2/NC(=O)/C(=C/c3ccncc3)S2)cc1", "hERG current change (%, negative = inhibition) at 10uM": 24}, {"smiles": "COc1cc2c(cc1OC)CN(c1nc(CN3CCCC3)nc3sc(C)c(C)c13)CC2", "hERG current change (%, negative = inhibition) at 10uM": -75.6}, {"smiles": "COc1ccc(CCN(Cc2ccccn2)C(=S)Nc2ccccc2Cl)cc1OC", "hERG current change (%, negative = inhibition) at 10uM": -12}, {"smiles": "CC(C)C(=O)NC(=S)NCC(=O)c1ccccc1", "hERG current change (%, negative = inhibition) at 10uM": -17.3}, {"smiles": "CCc1ccc(NC(=O)CCc2ccc(CC)o2)cc1", "hERG current change (%, negative = inhibition) at 10uM": -4.1}, {"smiles": "COc1cc(CO)c(Br)cc1OCC(N)=O", "hERG current change (%, negative = inhibition) at 10uM": 10.7}, {"smiles": "Cc1noc(C)c1COC(=O)c1ccccc1NC(=O)c1ccco1", "hERG current change (%, negative = inhibition) at 10uM": -26.4}, {"smiles": "COc1ccccc1NC(=O)C1CCCN(C(=O)Nc2ccc(F)cc2)C1", "note": "(centres unmarked)", "hERG current change (%, negative = inhibition) at 10uM": -5.46}, {"smiles": "Cc1cc(Cl)c(OCCN2C(=O)NC(C)(C)C2=O)c(Br)c1", "hERG current change (%, negative = inhibition) at 10uM": -4.37}, {"smiles": "CCOC(=O)C1=C(C)C(c2ccc(OC)cc2)NC(=S)N1", "note": "(centres unmarked)", "hERG current change (%, negative = inhibition) at 10uM": 1.73}, {"smiles": "Cc1ccc2sc(N(CCCN(C)C)C(=O)c3ccc(S(=O)(=O)N4CCc5ccccc5C4)cc3)nc2c1C.Cl", "hERG current change (%, negative = inhibition) at 10uM": 13.6}, {"smiles": "Cc1c(NC(=O)C(C)OC(=O)c2cccc([N+](=O)[O-])c2)c(=O)n(-c2ccccc2)n1C", "note": "(centres unmarked)", "hERG current change (%, negative = inhibition) at 10uM": -15.5}, {"smiles": "Cc1ccc(NS(=O)(=O)c2cccc(C(=O)NN3CCOCC3)c2)cc1", "hERG current change (%, negative = inhibition) at 10uM": 0.89}, {"smiles": "CS(=O)(=O)N1CCC(C(=O)Nc2ccc(C(F)(F)F)cc2)CC1", "hERG current change (%, negative = inhibition) at 10uM": 12.4}, {"smiles": "Cc1ccc(C(=O)NC2c3ccccc3-c3ccccc32)cc1", "hERG current change (%, negative = inhibition) at 10uM": 11.9}]}]}
